Reference: the GPR68 mutational scans of Howard et al. (2025)
Scores with a large standard error are left out. Two further conditions of the source, in which the scores hardly spread, are not listed. Read del as a deletion of the residues named and ins as an insertion between two positions. For part of these data: How much ogerin was present is not stated here.

B1: GPR68, Q15743 (parent)
chain: MGNITADNSSMSCTIDHTIHQTLAPVVYVTVLVVGFPANCLSLYFGYLQIKARNELGVYLCNLTVADLFYICSLPFWLQYVLQHDNWSHGDLSCQVCGILLYENIYISVGFLCCISVDRYLAVAHPFRFHQFRTLKAAVGVSVVIWAKELLTSIYFLMHEEVIEDENQHRVCFEHYPIQAWQRAINYYRFLVGFLFPICLLLASYQGILRAVRRSHGTQKSRKDQIQRLVLSTVVIFLACFLPYHVLLLVRSVWEASCDFAKGVFNAYHFSLLLTSFNCVADPVLYCFVSETTHRDLARLRGACLAFLTCSRTGRAREAYPLGAPEASGKSGAQGEEPELLTKLHPAFQTPNSPGSGGFPTGRLA

Experiments:
[1] = variants of: B1; experiment: cAMP reporter score (Enrich2 score, wild type = 0); higher = more signal; HEK293T, FACS bins
[2] = variants of: B1; experiment: surface expression score (Enrich2 score, wild type = 0); higher = more signal; HEK293T, FACS bins

Variant | cAMP reporter score ([1]; pH 5.5) | cAMP reporter score ([1]; pH 6) | cAMP reporter score ([1]; pH 6, modulator: ogerin) | cAMP reporter score ([1]; pH 6.5, modulator: ogerin) | surface expression score [2]
Y28D | -1.78 | -1.16 | -1.53 | -1.37 | -1.44
Y28E | -2.46 | 0.06 | -3.37 |  | -3.11
Y28F | -0.415 | -1.07 | -0.54 | -0.999 | 0.53
Y28G | -1.16 | -1.79 | -2 |  | -1.08
Y28H | -1.43 | -0.729 | -1.51 | -1.29 | -0.996
Y28I | -1.1 | -0.875 | -1.05 | -0.733 | 1.1
Y28K | -0.545 | -1.13 | -1.09 | -0.625 | -1.79
Y28L | -0.668 | -0.031 | -1.6 | -0.286 | 1.74
Y28M | -1.26 | -0.444 | -1.03 | -0.675 | 0.788
Y28N | -0.809 | -1.53 | -0.721 | -1.3 | -2.27
Y28P | -1.4 | -0.955 | -1.49 | -0.568 | -2.1
Y28Q | -0.95 |  | -2.07 | -1.6 | -1.88
Y28R | -0.674 | 0.268 | -0.508 | 0.734 | -1.72
Y28S | -1.75 | -1.91 | -1.38 | -1.39 | 
Y28T | -2.56 |  |  |  | -1.17
Y28V | -1.44 | 0.4 | -1.92 | -0.044 | -0.602
Y28W | 0.846 | -0.233 | 0.384 | -0.545 | 1.62
Y28_T30del | -1.4 | -0.791 | -1.8 | -1.22 | -2.26
Y28_V29insG | -1.64 | -0.961 | -2.48 | -1.24 | -2.58
Y28_V29insGS | -0.936 |  | -1.43 | -0.425 | -1.89
Y28del | -1.12 | -0.769 |  | -0.031 | -2.57
V29_T30insGS | -1.54 | -1.54 |  |  | -2.04

Variant | cAMP reporter score ([1]; pH 5.5) | cAMP reporter score ([1]; pH 6) | cAMP reporter score ([1]; pH 6, modulator: ogerin) | cAMP reporter score ([1]; pH 6.5, modulator: ogerin) | surface expression score [2]
V29_V31del | -1.73 | -1.59 | -2.4 | -0.772 | -2.11
T30_V31del | -1.19 | -0.829 | -2.08 | -0.581 | -2.45
V31A | 0.266 | -0.072 | -0.145 | 0.025 | -1.49
V31C | 0.75 | -0.186 | -0.257 | -0.116 | 
V31D | -0.913 | -1.42 | -1.88 | -1.05 | -2.07
V31E | -1.6 | -0.823 | -0.597 | -0.781 | -2.33
V31F | -1.99 | -1 | -1.26 | -1.01 | -1.82
V31G | -0.968 |  | -2.82 | -2.15 | -2.62
V31H | -0.813 | -0.506 |  | -1.75 | -0.991
V31I | -1.14 | -1.01 | -1.06 | -1.35 | -0.333
V31K | -0.756 | -1.07 | -1.39 | -0.826 | -1.92
V31L | -0.934 | -0.629 | -1.16 | -0.992 | 1.49
V31M | -0.588 | 0.184 | -0.291 | -0.252 | -1.59
V31N | -1.11 | -1.85 | -1.67 |  | 
V31P | -1.54 |  | -1.65 | -1.11 | -1.81
V31Q | -1.48 | -0.779 | -1.83 | -0.967 | -1.89
V31R | -1.52 | -1.22 | -1.49 | -1.27 | -2.6
V31S | -1.45 | 0.095 | -1.74 | -1.19 | -2.74
V31T | -0.914 | -1.09 | -0.95 | -1 | -2.41
V31W | -2.34 | -1.56 | -1.58 | -1.24 | -2.56
V31Y | -1.59 | -0.819 | -2.39 | -1.85 | -2.16
V31_L32insGS | -1.02 | -0.888 | -1.68 | -1.07 | -2.3

Variant | cAMP reporter score ([1]; pH 5.5) | cAMP reporter score ([1]; pH 6) | cAMP reporter score ([1]; pH 6, modulator: ogerin) | cAMP reporter score ([1]; pH 6.5, modulator: ogerin) | surface expression score [2]
L32_V33insGS | -1.33 | -1.02 | -1.46 | -0.675 | -2.59
V33_G35del | -1.56 | -1.09 | -1.54 | -1.49 | -2.54
V33_V34del | -0.9 | -0.61 | -1.28 | -1.76 | -2.16
V33_V34insG | -1.73 | -1.19 | -1.38 | -1.41 | -1.99
V34del | -1.76 | 0.656 | -0.637 | 1.28 | -2.48
G35_F36insGS | -1.23 | -0.93 | -0.382 | -0.44 | -2.51
G35_F36insGSG | -1.33 | -0.808 | -1.04 | -0.667 | -2.78
G35del | -1.25 | -0.936 | -1.71 | -0.955 | -2.59
F36_P37insGS | -1.19 | 0.063 | -1.41 | -0.22 | -2.51
F36del | -1.25 | -0.585 | -2.05 | -0.891 | -3.09
P37_A38del | -1.35 | -0.735 | -1.41 | -1.09 | -2.25
P37_A38insGSG | -2.75 |  | -1.78 | -1.19 | -1.83
A38_N39del | -1.61 | -0.734 | -1.38 | -1.25 | -2.32
A38_N39insG | -0.427 | -0.92 | -1.71 | -0.981 | -2.2
A38del | -0.75 | 0 | -1.05 | -0.64 | -2.23
N39_C40insGSG | -0.489 | -0.597 | -1.9 | -1.22 | -2.69
C40A | 0.297 | -0.552 | 0.32 | -0.77 | -0.958
C40D | -2.39 | -0.832 | -0.693 | -0.627 | 
C40E | -1.73 |  | -1.12 | -0.146 | -1.66
C40F | 0.065 | -0.071 | -0.331 | -0.368 | -1.35
